Screen size: about 200,000 compounds; about 25 (0.01%) were called active. Roughly 23% stayed inconclusive and do not appear here. The call rests on the fitted dose curve; in most records, active means well fitted inhibition curve with a large enough effect in the signal ratio, with a control signal flat (not every such curve was filed as active); inconclusive means small, poorly fitted or top-dose-only effect, or effect the other way, or a change in a side signal; inactive means flat fitted curve, though single readings scatter; the % refers to the signal ratio. The list shows a part of the results, in another mix than the full data.
experiment: qHTS Assay for Modulators of Lamin A Splicing; details: HeLa LMNA splicing GFP/RFP minigene ratio, 48 h; series mostly up to 46.1 µM; ratio change, negative = inhibition: at the top concentration
Excerpt: NCGC Assay Overview: Hutchinson-Gilford Progeria Syndrome (HGPS) is a pediatric premature aging disease caused by a spontaneous mutation in the lamin A/C (LMNA) gene. The mutation activates a cryptic splice site in the LMNA pre-mRNA which results in production of a pre-lamin A protein that cannot be processed properly. The mutant protein accumulates in the nucleus and negatively affects numerous cellular functions. Correction of the splicing defect in HGPS patient cells using a targeted oligonucleotide (exo11) leads to reversal of the cellular disease phenotypes. To identify small molecule modulators of aberrant LMNA splicing, a homogenous assay was constructed in HeLa cells that used a GFP containing minigene to report on correction of aberrant splicing in lamin A and a RFP (DsRed2) to report on cell viability, uniformity and nonspecific effects on the assay signal. This assay was adapted to laser-scanning microplate cytometry (Acumen, TTP Labtech) where miniaturization of the assay to a 1,536-well plate format was possible. References: Bowen, W. P.; Wylie, P. G. Application of Laser-Scanning Fluorescence Microplate Cytometry in High Content Screening. Assay Drug Dev Technol 2006;4:209-221. Scaffidi P, Misteli T. Reversal of the cellular phenotype in the premature aging disease Hutchinson-Gilford progeria syndrome. Nat.
NCGC Assay Protocol Summary: Reagents/Controls: Stable clones expressing DsRed2 and lamin A-EGFP were generated by Cell and Molecular Technologies in S3 HeLa cells. HeLa cells were prepared for the assay when they were 70-90% confluent. The cells were counted and resuspended in Opti-MEM I (no phenol red; Gibco), 2% FBS, 1% penicillin/ streptomycin (Gibco) at concentration of 120 cells/uL concentration. The suspension was passed through a Falcon basket filter with pore size 40um (Beckton Dickson). Control titrations: column […] 1536-well plate contained a sixteen point titration (1:2 dilutions) in duplicate of ancitabine (Sigma: A8598) beginning at 40 uM final concentration. Column 2 contained a sixteen point titration (1:2 dilutions) of cycloheximide beginning at 1.4 mM final concentration. Column 3 contained ancitabine at 40 uM and column 4 contained was the vehicle control (0.5% DMSO final concentration). Assay Steps: 5 uL of HeLa cells were plated in Aurora LoBase black clear bottom (cyclic-olefin polymer) 1536-well plates at a final density of 600 cells/well. Controls and library compounds were added with a 1536-well pin array using the Kalypsys pin-tool. The plates were then incubated for 48 hrs in a cell-culture incubator (37 °C; 5% CO2, 98% humidity). Following incubation the plates were read on the Acumen Explorer using the 488 nm laser. Data was collected on objects between 10 and 100 um in size. Cell objects were defined by a 15 um width x 10 um depth filter. The ratio of the total object intensity in PMT1 (500-530 nm emission; GFP) over PMT3 (575-640 nm emission; RFP) was calculated for analysis. Keywords: NIH Roadmap, MLSCN, MLI, MLSMR, qHTS, NCGC, lamin A, Progeria, RNA splicing.
On the % scale 0 is the no-effect control and ±100 the full control effect; potency means the concentration at half of the fitted maximal effect.

Structure (SMILES)	ratio change, negative = inhibition	Potency
N#C/C(=C(/O)CCl)c1nnc2n1CCCCC2	inactive: 43.1% [at 46 µM]	
CCCC(=O)Nc1ccc(OCC(O)CNC(C)C)c(C(C)=O)c1 (stereo unspecified)	inactive: 2.08%	
C/C(CCN1CCCCc2nc(C)c(C)cc21)=N\O[C@H](C)c1cn([C@H](CO)Cc2ccccc2)nn1	inactive: 1.83%	
C[C@@H](C(=O)O)[C@@H]1C[C@@]1(C)[C@@H](NC(=O)OCc1ccccc1)c1ccccc1	inactive: 4.65%	
COc1ccc(-c2nc(CCNC(=O)c3ccc(Br)o3)cs2)cc1	inactive: -21.3% [at 46 µM]	
Cc1ccc(C2=N/C(=C/c3cccs3)C(=O)N2Nc2ccccc2)cc1	inactive: -11.2%	
Cn1c(=O)c2c(ncn2CC(O)CO)n(C)c1=O (stereo unspecified)	inactive: -1.2%	
CN(C)c1ccc(-c2nc(N(C)C)c3ccccc3n2)cc1		active: 12.6 µM
CC(C)C[C@H](NC(=O)[C@@H]1O[C@H]1C(=O)O)C(=O)NCCCCN=C(N)N	inactive: -13.6%	
Cc1cccc(N=C2NC(=O)/C(=C\c3cccs3)S2)c1	inactive: -17.8%	
CCN1CCC[C@H]1CNC(=O)c1cc(S(N)(=O)=O)ccc1OC		inactive
Nc1ncnc2c1ncn2[C@H]1C[C@H](O)[C@@H](CO)O1	inactive: -2.55%	
N=S(=O)(O)Cc1noc2ccccc12	inactive: -11.8%	
O=C(O)c1cc(=O)c2c(OCC(O)COc3cccc4oc(C(=O)O)cc(=O)c34)cccc2o1		inactive
C=CCc1ccccc1OCC(O)CNC(C)C (stereo unspecified)	inactive: -8.71%	
CN(C)c1ccc(/C=C2\C(=O)Nc3ccccc32)cc1		active: 28.2 µM

Structure (SMILES)	ratio change, negative = inhibition	Potency
O=C(CN1CCN(c2ccc(Cl)cc2)CC1)Nc1ccc(F)c(F)c1	inactive: 22.2%	
CN(C)CCC(c1ccccc1)c1ccccn1 (stereo unspecified)		inactive
COc1c(O)cc2c(c1O)C1OC(CO)C(O)[C@H](O)[C@H]1OC2=O (stereo partly specified)	inactive: -3.34%	
CCN(CC)C(=O)N1CCN(C)CC1	inactive: 19.8% [at 46 µM]	
Nc1ccc(N=Nc2ccccc2)c(N)n1	inactive: -5.41%	
CCCC(C(=O)OCCN(CC)CC)(c1ccccc1)c1ccccc1	inactive: -23%	
COc1ccc(C(C)n2c(C)c3c(C)nnc(C)c3c2C)cc1 (stereo unspecified)	inactive: 9.2%	
COc1ccc2c(C=Nc3c(C)n(C)n(-c4ccccc4)c3=O)c(O)n(Cc3ccco3)c(=O)c2c1	inactive: -4.59%	
COCCCNC(=O)C1CCC(CNS(=O)(=O)c2ccc(OC)cc2)CC1 (stereo unspecified)	inactive: 20.4% [at 46 µM]	
CN(C)CCCC1(c2ccc(F)cc2)OCc2cc(C#N)ccc21 (stereo unspecified)		inactive
CN(C)CCC(c1ccc(Cl)cc1)c1ccccn1 (stereo unspecified)		inactive
O=C(O)c1cc(-c2ccco2)nc2ccc(Br)cc12	inactive: 16.3%	
Cc1ccc(C(=O)/C=C\C(=O)c2ccc(C)cc2)cc1	inactive: -0.927%	
O=C(NCC1CCCCN1)c1cc(OCC(F)(F)F)ccc1OCC(F)(F)F (stereo unspecified)	inactive: -0.235%	
CCc1cccc(CC)c1NC(=O)CSc1nc2ccc(N3C(=O)C4C(C3=O)[C@H]3C=C[C@@H]4C3)cc2s1 (stereo partly specified)	inactive: -13%	

— PubChem BioAssay AID1487 (National Center for Advancing Translational Sciences (NCATS), 2009)
